{"source": "PubChem BioAssay AID1030", "about": "(National Center for Advancing Translational Sciences (NCATS), 2008)", "note": "Out of some 220,000 compounds screened, about 16,000 (7.3%) were called active. The inconclusive results got no clear call from the source; some entries with a clear call stand among them for comparison. Calls come from the whole dose curve; as a rule, active = well fitted inhibition curve with a large enough effect (not every such curve was filed as active); inconclusive = small, poorly fitted or top-dose-only effect, or another doubt; inactive = no such curve, though single readings can be large or run the other way. Potencies of inconclusive entries are left out as doubtful fits. Potency is the fitted concentration of half-maximal effect; tags give direction and shape of the fitted curve."}
{"target": "Aldehyde dehydrogenase 1A1 (Homo sapiens) (UniProt P00352)", "sequence (P00352 whole entry, looked up)": "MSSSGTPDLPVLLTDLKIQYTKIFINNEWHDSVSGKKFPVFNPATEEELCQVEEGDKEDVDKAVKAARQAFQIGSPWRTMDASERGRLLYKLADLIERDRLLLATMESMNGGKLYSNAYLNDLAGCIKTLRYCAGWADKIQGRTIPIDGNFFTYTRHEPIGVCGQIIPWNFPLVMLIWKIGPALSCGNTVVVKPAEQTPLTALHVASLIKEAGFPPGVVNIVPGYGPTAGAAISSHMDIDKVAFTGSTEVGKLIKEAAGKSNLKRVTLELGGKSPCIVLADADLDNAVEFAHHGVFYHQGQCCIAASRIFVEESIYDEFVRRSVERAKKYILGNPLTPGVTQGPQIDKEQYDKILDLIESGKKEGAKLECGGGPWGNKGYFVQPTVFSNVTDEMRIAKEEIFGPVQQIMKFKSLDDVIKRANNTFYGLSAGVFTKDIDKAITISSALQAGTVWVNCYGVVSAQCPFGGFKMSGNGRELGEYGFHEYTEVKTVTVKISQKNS", "test": "qHTS Assay for Inhibitors of Aldehyde Dehydrogenase 1 (ALDH1A1);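 for activity, negative = inhibition: plate controls were no enzyme wells and a reference inhibitor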", "conditions": "Purified ALDH1A1, NADH fluorescence, propionaldehyde substrate; series mostly up to 75.3 µM; activity, negative = inhibition: at the top concentration"}
{"smiles": "COc1cc2nc(Cl)nc(N3CCCCC3)c2cc1OC", "Potency": "inconclusive [inhibitor, single point]"}
{"smiles": "COc1cc(C(=O)NC2=NCCS2)ccc1OCc1c(C)noc1C", "Potency": "inconclusive [inhibitor, single point]"}
{"smiles": "CCOC(=O)C(CC)Sc1nc2c(c(=O)[nH]c(=O)n2C)n1CCc1ccccc1", "note": "(stereo unspecified)", "Potency": "active: 11.2 µM"}
{"smiles": "CSc1nc(N2CCOCC2)c2c3c(sc2n1)CCC3", "activity, negative = inhibition": "inactive: -14.1%"}
{"smiles": "COc1cccc(S(=O)(=O)N2CCN(C(=O)c3ccco3)CC2)c1", "Potency": "inconclusive [inhibitor, partial curve]"}
{"smiles": "Oc1nc(-c2ccc(Br)cc2)n2ccncc12", "activity, negative = inhibition": "inactive: 0.393%"}
{"smiles": "Cc1[nH]n(CCC#N)c(=O)c1CC(=O)N1CCN(c2ccccc2)CC1", "Potency": "inconclusive [inhibitor, single point]"}
{"smiles": "CC(C)CC[n+]1ccn(-c2nc3ccccc3nc2[N-]S(=O)(=O)c2ccccc2)c1", "Potency": "inconclusive [inhibitor, partial curve]"}
{"smiles": "Cn1c(=O)c2c(nc(SCC(=O)N3c4ccccc4CCc4ccccc43)n2C)n(C)c1=O", "Potency": "inconclusive [inhibitor, single point]"}
{"smiles": "COC(=O)c1ccc(CSc2nc3ccccc3c(=O)n2-c2ccc(OC)c(OC)c2)o1", "activity, negative = inhibition": "inactive: -2.35%"}
{"smiles": "O=S(=O)(Nc1nccs1)c1ccc2c(c1)OCCO2", "Potency": "inconclusive [inhibitor, single point]"}
{"smiles": "N#C/C(=C(/O)c1cccs1)c1nnc2n1CCCCC2", "activity, negative = inhibition": "inactive: -6.4%"}
{"smiles": "COc1ccc(NS(=O)(=O)c2cc(NC(=O)c3cc(=O)c4ccccc4o3)ccc2OC)cc1", "Potency": "inconclusive [inhibitor, partial curve]"}
{"smiles": "CCOc1ccccc1OCC(=O)NC1CCCCC1", "activity, negative = inhibition": "inactive: 7.42%"}
{"smiles": "CCOc1ccc(Br)cc1S(=O)(=O)Nc1ccccc1N1CCOCC1", "Potency": "inconclusive [inhibitor, single point]"}
{"smiles": "CC1C/C(=N/N=C2/NC(=O)CS2)CC(C)(C)C1", "note": "(stereo unspecified)", "Potency": "inconclusive [inhibitor, single point]"}
{"smiles": "O=C(NNc1cc(Br)c(O)c(Br)c1)c1ccccc1", "Potency": "active: 17.8 µM"}
{"smiles": "CCc1ccc(N(CC(=O)Nc2sc3c(c2C(=O)OC)CCCC3)S(C)(=O)=O)cc1", "Potency": "inconclusive [inhibitor, partial curve]"}
{"smiles": "O=C(CSc1c2c(nc3ccc(Cl)cc13)CCCC2)NCCCN1CCOCC1", "activity, negative = inhibition": "inactive: -11.1%"}
{"smiles": "O=C(CCl)Nc1ccccc1Sc1ccc(Cl)cc1", "Potency": "active: 3.98 µM"}
{"smiles": "CCn1cc(C(=O)OCc2ccc(F)cc2)c(=O)c2ccc(C)nc21", "Potency": "inconclusive [inhibitor, single point]"}
